The record followed here is PubChem BioAssay (NCI).

Structures are written as SMILES.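 1) Cells in 96-well plates. 2) Compound, 48 h, 5 concentrations. 3) Linear interpolation between surrounding doses. 4) Unreached endpoint = highest concentration. Here, GI50 denotes the concentration required for 50% inhibition of growth. At the TGI there is no net growth.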 The source made the active and inactive calls. Bounds are passed on as bounds.

Among the test systems are CCRF-CEM leukemia; HOP-92 NSCLC; NCI-H226 lung; NCI-H23 lung; SR leukemia; UACC-257 melanoma.
Common to all, as to experiment: NCI-60 cell line screen, 48 h

Consider `O=C1NC(=O)C(c2cccc([N+](=O)[O-])c2)=C1Nc1cc(Cl)c(O)c(Cl)c1`, for which, in the experiment on CCRF-CEM leukemia, the GI50 entry is “inactive”. Moreover, the TGI in the experiment on CCRF-CEM leukemia, with HOP-92 NSCLC, with NCI-H226 lung, in the experiment with NCI-H23 lung, in the experiment with SR leukemia and in the experiment on UACC-257 melanoma was over 25 µM each time. For the same molecule, the GI50 in the experiment with HOP-92 NSCLC, in the experiment on NCI-H226 lung, in the experiment with NCI-H23 lung, in the experiment on SR leukemia and with UACC-257 melanoma was over 25 µM throughout.
